Over roughly 33,000 sequences, “E-score (-0.5 to 0.5)” has its median near -0.043; the highest 2% begin near 0.37. The list shows a part of the results.
molecular target: T1, Upc2 (UniProt Q12151); assay: PBM E-score (8-mer binding enrichment) (E-score (-0.5 to 0.5)); higher = stronger / more preferred TF binding; most listed sequences are background and not binding sites; conditions: protein concentration: 200 nM; construct: GST-full length
T1 sequence: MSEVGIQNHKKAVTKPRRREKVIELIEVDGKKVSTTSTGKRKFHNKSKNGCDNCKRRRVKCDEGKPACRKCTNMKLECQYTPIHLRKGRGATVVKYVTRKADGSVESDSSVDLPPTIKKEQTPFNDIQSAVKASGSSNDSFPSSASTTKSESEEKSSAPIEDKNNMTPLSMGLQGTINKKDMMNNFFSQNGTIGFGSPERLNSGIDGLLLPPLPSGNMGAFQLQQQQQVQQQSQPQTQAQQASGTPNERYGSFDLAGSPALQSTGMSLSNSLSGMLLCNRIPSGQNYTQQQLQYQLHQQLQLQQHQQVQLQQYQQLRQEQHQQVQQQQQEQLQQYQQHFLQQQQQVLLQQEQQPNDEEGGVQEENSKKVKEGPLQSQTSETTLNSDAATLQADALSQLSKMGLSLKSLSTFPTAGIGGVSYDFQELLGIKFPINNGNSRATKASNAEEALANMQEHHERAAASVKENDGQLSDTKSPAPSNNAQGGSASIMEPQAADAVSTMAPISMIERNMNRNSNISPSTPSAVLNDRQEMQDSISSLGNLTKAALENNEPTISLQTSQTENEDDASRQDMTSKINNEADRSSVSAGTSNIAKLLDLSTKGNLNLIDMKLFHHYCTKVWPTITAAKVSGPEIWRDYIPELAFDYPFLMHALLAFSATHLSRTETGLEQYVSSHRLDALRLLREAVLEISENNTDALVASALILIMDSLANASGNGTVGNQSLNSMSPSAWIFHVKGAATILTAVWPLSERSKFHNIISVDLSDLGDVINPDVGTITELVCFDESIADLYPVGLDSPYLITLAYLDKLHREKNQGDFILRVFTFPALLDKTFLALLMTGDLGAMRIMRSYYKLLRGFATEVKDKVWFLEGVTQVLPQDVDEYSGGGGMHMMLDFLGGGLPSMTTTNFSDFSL
Procedure, shortened: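 Detection of bound protein used fluorescent anti-GST, with scans normalised by masliner. The proteins were GST-tagged yeast transcription factors applied at about 100-200 nM to universal all-10-mer Agilent arrays made double-stranded by primer extension. Each ungapped eight-base word, pooled with its reverse complement, was scored with an E-score from the Universal PBM Analysis Suite.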

Sequence	PBM E-score
CTCTCGGC	-0.151
AAGTGGGA	-0.0458
GGTAGTAC	0.0243
GACATCAA	-0.0575
CTCCCGCA	-0.0644
ACCCACCC	-0.115
AGAAAGCA	5e-05
TGAAAACA	0.00644
AACACAAG	-0.0766
ACTTGTGA	-0.167
AAGGTATG	-0.194
ATTCGAGA	0.0266
CAGGCGGC	-0.0153
CATATCGA	-0.148
GGTTGGGA	-0.0786
CTCAACAC	-0.0233
CGGCTTGC	-0.0517
AACACAGC	0.133
ATCTATAC	0.287
CCACTCCC	0.0437
ACCGTTGA	0.114
CTGACCCC	-0.194

Sequence	PBM E-score
ACACTTAT	0.0498
ACCGTACT	0.214
AATCCTCT	-0.28
CACTTCAG	-0.242
AATACGAT	0.395
CCGATGCA	0.00648
CCGGATCA	-0.159
GTTGGCGA	0.0336
CAGTCTCG	0.0508
CTCTACTA	-0.0789
ATACAGGG	0.0495
ATACGCGA	0.349
CCAGCTAG	-0.0471
AGAAGAAG	-0.0336
CTCAGGCA	-0.178
CCTGTGCC	-0.2
GATAGCGA	0.00835
ATACCGCA	0.0605
CTGGTCCA	-0.227
GCTGACAA	-0.233
AAAATCCC	-0.114
CTTGCAAC	-0.0347

Sequence	PBM E-score
ATACAGAG	0.0394
GCCGCAAC	-0.0602
AGTACGTG	0.0272
GGTGCCCA	-0.242
ATCAACGC	0.0345
CGCGGTCA	-0.248
ACTTACAG	0.00814
GAACCTAC	-0.0878
ACATCGGG	-0.236
ACTTAGTA	0.053
AAGCCTGA	-0.209
GTACTAGA	0.0925
AGGGTATC	-0.0702
AACACGTC	-0.112
AACAACCT	-0.0984
CCGCCACA	-0.21
CTTTTTCC	-0.0942
AGATATAT	-0.0698
CGCCAACC	-0.0871
GGTAGAAA	-0.117
GCATCTCC	-0.306
ACACTCTC	-0.0609

Sequence	PBM E-score
AGCGAAAC	0.26
GAGTTTCA	-0.0194
CCACGCGC	-0.19
GCGTGTAC	0.267
CCGTTGTA	0.0962
GATTTCGC	0.248
AGTGACCC	-0.161
ATTGATCA	-0.156
AATATCGC	-0.071
CGCGATTA	-0.0112
CCCAAACA	-0.0267
GCAGCTAC	0.0136
AAGATTTA	0.0578
CGCCTAAA	0.151
AGGTCAGC	0.136
CCCATGCG	-0.0719
TATATCAA	-0.04
CACGCAGC	-0.111
ATAGATCG	0.153
AATACTTG	-0.194

Reference: the supplement of paper PMC3334620
